Reference: article PMC9911399, “Two distinct binding modes provide the RNA-binding protein RbFox with extraordinary sequence specificity”
Where a chain is given by its changes, count along the chain named. This is one part of the list.

T1: RBFOX1 RRM RbFoxmut (Fox-RRM*) (Homo sapiens, UniProt Q9NWB1 109-208, R118D;E147R;N151S;E152T)
T1 sequence: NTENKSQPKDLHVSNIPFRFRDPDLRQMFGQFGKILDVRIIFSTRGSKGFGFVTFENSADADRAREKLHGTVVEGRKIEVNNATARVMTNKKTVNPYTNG

B1: AUUACGC (DNA:RNA)
RNA: GGGAGACCGGAAUUCAGAUUGUCCAUUACGCUUAAAUCCCGUCGUAGCCACCA
DNA 1: CAATCTGAATTCCGGTCTCCC
DNA 2: TGGTGGCTACGACGGGATT
B2: CGGCAAA (DNA:RNA)
RNA: GGGAGACCGGAAUUCAGAUUGUCCCGGCAAAUUAAAUCCCGUCGUAGCCACCA
DNA 1: CAATCTGAATTCCGGTCTCCC
DNA 2: TGGTGGCTACGACGGGATT
B3: AGAACUA (DNA:RNA)
RNA: B1 RNA with U26G, U27A, G30U, C31A
DNA 1: CAATCTGAATTCCGGTCTCCC
DNA 2: TGGTGGCTACGACGGGATT
B4: GCGAGUC (DNA:RNA)
RNA: B1 RNA with A25G, U26C, U27G, C29G, G30U
DNA 1: CAATCTGAATTCCGGTCTCCC
DNA 2: TGGTGGCTACGACGGGATT
B5: CUACGUU (DNA:RNA)
RNA: B2 RNA with G26U, G27A, A29G, A30U, A31U
DNA 1: CAATCTGAATTCCGGTCTCCC
DNA 2: TGGTGGCTACGACGGGATT
B6: UAGUCAC (DNA:RNA)
RNA: B1 RNA with A25U, U26A, U27G, A28U, G30A
DNA 1: CAATCTGAATTCCGGTCTCCC
DNA 2: TGGTGGCTACGACGGGATT
B7: UACAGUG (DNA:RNA)
RNA: B1 RNA with A25U, U26A, U27C, C29G, G30U, C31G
DNA 1: CAATCTGAATTCCGGTCTCCC
DNA 2: TGGTGGCTACGACGGGATT
B8: CGAUUGA (DNA:RNA)
RNA: B2 RNA with G27A, C28U, A29U, A30G
DNA 1: CAATCTGAATTCCGGTCTCCC
DNA 2: TGGTGGCTACGACGGGATT
B9: CUUCCUC (DNA:RNA)
RNA: B1 RNA with A25C, A28C, G30U
DNA 1: CAATCTGAATTCCGGTCTCCC
DNA 2: TGGTGGCTACGACGGGATT
B10: CUACGAG (DNA:RNA)
RNA: B2 RNA with G26U, G27A, A29G, A31G
DNA 1: CAATCTGAATTCCGGTCTCCC
DNA 2: TGGTGGCTACGACGGGATT
B11: CCAGCAC (DNA:RNA)
RNA: B1 RNA with A25C, U26C, U27A, A28G, G30A
DNA 1: CAATCTGAATTCCGGTCTCCC
DNA 2: TGGTGGCTACGACGGGATT
B12: GAUAAGC (DNA:RNA)
RNA: B1 RNA with A25G, U26A, C29A
DNA 1: CAATCTGAATTCCGGTCTCCC
DNA 2: TGGTGGCTACGACGGGATT
B13: GCCCGCC (DNA:RNA)
RNA: B1 RNA with A25G, U26C, U27C, A28C, C29G, G30C
DNA 1: CAATCTGAATTCCGGTCTCCC
DNA 2: TGGTGGCTACGACGGGATT
B14: CCCUUCA (DNA:RNA)
RNA: B2 RNA with G26C, G27C, C28U, A29U, A30C
DNA 1: CAATCTGAATTCCGGTCTCCC
DNA 2: TGGTGGCTACGACGGGATT
B15: AUCCUCA (DNA:RNA)
RNA: B1 RNA with U27C, A28C, C29U, G30C, C31A
DNA 1: CAATCTGAATTCCGGTCTCCC
DNA 2: TGGTGGCTACGACGGGATT
B16: GCUCUGU (DNA:RNA)
RNA: B1 RNA with A25G, U26C, A28C, C29U, C31U
DNA 1: CAATCTGAATTCCGGTCTCCC
DNA 2: TGGTGGCTACGACGGGATT
B17: AUAGGCC (DNA:RNA)
RNA: B1 RNA with U27A, A28G, C29G, G30C
DNA 1: CAATCTGAATTCCGGTCTCCC
DNA 2: TGGTGGCTACGACGGGATT
B18: UCCAAGA (DNA:RNA)
RNA: B1 RNA with A25U, U26C, U27C, C29A, C31A
DNA 1: CAATCTGAATTCCGGTCTCCC
DNA 2: TGGTGGCTACGACGGGATT
B19: CCCUGGC (DNA:RNA)
RNA: B1 RNA with A25C, U26C, U27C, A28U, C29G
DNA 1: CAATCTGAATTCCGGTCTCCC
DNA 2: TGGTGGCTACGACGGGATT
B20: CCACGUG (DNA:RNA)
RNA: B2 RNA with G26C, G27A, A29G, A30U, A31G
DNA 1: CAATCTGAATTCCGGTCTCCC
DNA 2: TGGTGGCTACGACGGGATT

These binders were tested against T1, RBFOX1 RRM RbFoxmut (Fox-RRM*) (assay: EMSA; HiTS-Eq, 1 nM pool, 10 min; buffer printed only for the single-RNA assays: 10 mM Tris pH 7.5, 150 mM NaCl, 3.4 mM EDTA, 0.001% NP-40, 30 C). Conditions: tags: His6 N-terminal (pET28a); label: 5' 32P.
Outline: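 Relative association constants, normalised to the cognate motif, were derived by comparing read counts of each RNA species with those of the control reaction. The RNA sequenced was the free fraction, separated by 8% native PAGE after a 10 min equilibration in 50 µL of 1 nM 5′-radiolabelled RNA (7 randomized nucleotides) with increasing concentrations of purified wild-type or mutant RbFox RRM.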

Row | Binder | binding signal
1 | B1 | 0.109 KA relative to UGCAUGU
2 | B2 | 0.0857 KA relative to UGCAUGU
3 | B3 | 0.0901 KA relative to UGCAUGU
4 | B4 | 0.111 KA relative to UGCAUGU
5 | B5 | 0.112 KA relative to UGCAUGU
6 | B6 | 0.0921 KA relative to UGCAUGU
7 | B7 | 0.0646 KA relative to UGCAUGU
8 | B8 | 0.184 KA relative to UGCAUGU
9 | B9 | 0.087 KA relative to UGCAUGU
10 | B10 | 0.0812 KA relative to UGCAUGU
11 | B11 | 0.129 KA relative to UGCAUGU
12 | B12 | 0.076 KA relative to UGCAUGU
13 | B13 | 0.0938 KA relative to UGCAUGU
14 | B14 | 0.0901 KA relative to UGCAUGU
15 | B15 | 0.119 KA relative to UGCAUGU
16 | B16 | 0.102 KA relative to UGCAUGU
17 | B17 | 0.172 KA relative to UGCAUGU
18 | B18 | 0.109 KA relative to UGCAUGU
19 | B19 | 0.109 KA relative to UGCAUGU
20 | B20 | 0.125 KA relative to UGCAUGU
